# Reference: PubChem BioAssay AID588342 (National Center for Advancing Translational Sciences (NCATS), 2011)
# “And” between values parts separate entries of the source, which are not always exact repeats. Equal entries are not always repeated. The campaign covered roughly 360,000 compounds. About 25,000 (6.9%) were called active. Inconclusive means that the source gave no clear call. Such entries were picked first, then a sample of the others. Calls follow the shape of the dose curve; as a rule, active = well fitted inhibition curve with a large enough effect; inconclusive = small, poorly fitted or top-dose-only effect; inactive = flat fitted curve, though single readings scatter. Where the call is inconclusive, the potency comes from a doubtful curve fit.
# Biological target: Luciferin 4-monooxygenase (Photinus pyralis) (UniProt P08659)
# Test: qHTS profiling assay for firefly luciferase inhibitor/activator using purifed enzyme and Km concentrations of substrates (counterscreen for miR-21 project); also: nearly all actives have a fitted effect of over 55% in size
# Conditions: purified FLuc, luminescence inhibition; series mostly up to 57.5 µM
# How it was run: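 Biochemical qHTS of compounds, final roughly 60 µM downward over six points, against 10 nM purified firefly luciferase using Km concentrations of substrates (10 uM D-luciferin, 10 uM ATP) in Tris acetate pH 7.5 buffer; luminescence output.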
# Potency is read from the fitted curve at half-maximal effect; tags tell the direction and shape of the fitted curve.
# Sequence of UniProt P08659 (P08659 whole entry, looked up): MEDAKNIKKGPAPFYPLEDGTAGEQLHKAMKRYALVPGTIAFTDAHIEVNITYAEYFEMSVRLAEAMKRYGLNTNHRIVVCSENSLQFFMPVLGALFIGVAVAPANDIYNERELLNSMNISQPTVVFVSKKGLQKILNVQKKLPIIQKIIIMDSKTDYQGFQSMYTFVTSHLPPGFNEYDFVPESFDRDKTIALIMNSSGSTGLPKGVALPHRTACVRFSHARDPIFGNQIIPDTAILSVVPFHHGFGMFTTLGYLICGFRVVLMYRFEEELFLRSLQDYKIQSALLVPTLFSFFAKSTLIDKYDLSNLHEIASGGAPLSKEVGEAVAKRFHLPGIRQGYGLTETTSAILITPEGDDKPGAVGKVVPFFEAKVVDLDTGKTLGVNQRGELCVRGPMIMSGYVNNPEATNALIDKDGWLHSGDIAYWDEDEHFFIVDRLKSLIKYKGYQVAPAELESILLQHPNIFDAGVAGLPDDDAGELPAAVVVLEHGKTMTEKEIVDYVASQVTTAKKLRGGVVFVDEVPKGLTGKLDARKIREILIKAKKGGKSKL
row,Structure (SMILES),Potency
1,CCOC(=O)c1c(N/N=C/c2ccncc2)n[nH]c1C,"inconclusive: 16.9 µM [inhibitor, partial curve, poor fit]"
2,CCOC(=O)C1=C(COC(=O)COc2ccccc2OCC)NC(=O)NC1C (centres undefined),inactive
3,CCOc1ccccc1NC(=O)CCS(=O)(=O)c1ccc2c(c1)oc(=O)n2C,inactive
4,COc1ccccc1C(=O)Nc1ccc(C(=O)N2CCCC2)cc1,"inconclusive: 23.9 µM [inhibitor, single point]"
5,COc1ccc(CNC(=O)CCCn2ccc3cc(S(=O)(=O)N4CCCC4)ccc32)cc1,"inconclusive: 16.9 µM [inhibitor, partial curve] and inconclusive: 26.9 µM [inhibitor, single point]"
6,CCOc1cc(-c2nnc(SCC(=O)NC3CCCCC3)nc2-c2ccc(OC)c(OCC)c2)ccc1OC,inactive
7,CCCCOc1ccc(C(=O)NCc2ccco2)cc1,"inconclusive: 37.9 µM [inhibitor, partial curve, poor fit]"
8,O=C(N/N=C/C1CC2CCC1C2)c1ccc2c(c1)OCO2 (centres undefined),active: 13.5 µM
9,COc1ccc(CCNC(=O)C2CCCN2S(=O)(=O)c2ccc(F)cc2)cc1OC (centres undefined),inactive
10,Cn1nc(C(=O)Nc2sc3c(c2C#N)CCCC3)ccc1=O,active: 5.36 µM
11,Cc1ccc(NC(=S)N(CCN2CCOCC2)Cc2cc3cc4c(cc3[nH]c2=O)OCO4)cc1,inactive
12,N/C(=N\OC(=O)c1ccc2ccccc2c1)c1ccncc1,active: 1.9 µM
13,COc1ccc2oc(-c3cccc(NC(=O)c4cc([N+](=O)[O-])ccc4N4CCOCC4)c3)nc2c1,"inconclusive: 2.69 µM [inhibitor, partial curve, poor fit]"
14,CCn1c(SCC(=O)Nc2ccc(N3CCOCC3)cc2)nnc1-c1ccc(OC)cc1,active: 15.1 µM
15,COc1cc(/C=C/c2ccc3cccc(OC)c3n2)c(OC(C)=O)c([N+](=O)[O-])c1,inactive
16,Cc1cc(-c2nnc(CCC(=O)N(CC3CCC3)CC3CCCO3)o2)no1 (centres undefined),"inconclusive: 19 µM [inhibitor, partial curve]"
17,COc1ccc2oc(=Nc3cc(F)ccc3F)c(C(N)=O)cc2c1,inactive
18,COc1ccc(Cl)cc1C(=O)CSc1nnnn1C1CCCCC1,"inconclusive: 16.9 µM [inhibitor, partial curve]"
19,Cc1c(Cc2ccccc2)sc(/N=C/c2ccc3ccccc3c2)c1C(N)=O,"inconclusive: 21.3 µM [inhibitor, single point]"
20,Cc1ccc(NC(=O)c2csc3c2CCCC3)cc1,active: 4.26 µM
21,Cc1cc(C)cc(N(CC(=O)Nc2c(C)cc(C)cc2C)S(=O)(=O)c2c(C)nn(C)c2C)c1,inactive
22,COc1ccc(C(=O)Nc2nc3c(s2)Cc2c(Br)ccc(OC)c2-3)cc1OC,inactive
23,CCN(CC)c1ccc(/C=N/N2C(=O)c3ccccc3C2=O)c(O)c1,"inconclusive: 0.601 µM [inhibitor, partial curve, poor fit]"

row,Structure (SMILES),Potency
1,CN(CC(=O)Nc1ccc(F)cc1F)S(=O)(=O)c1cccc2nsnc12,inactive
2,CN(C)S(=O)(=O)c1cccc(NC(=O)COc2ccc(C(=O)c3ccccc3)cc2)c1,"inconclusive: 23.9 µM [inhibitor, partial curve]"
3,O=C(CN1C(=O)S/C(=C\c2ccc(F)cc2)C1=O)Nc1cccc(S(=O)(=O)NCc2ccco2)c1,"inconclusive: 23.9 µM [inhibitor, partial curve, poor fit]"
4,CCN(CC)CCCNC(=O)c1sc2nc3n(c(=O)c2c1C)CCCCC3,inactive
5,COc1ccc(C2OC3=C(Nc4cc(C)c(C)cc4N3)C2=O)cc1 (centres undefined),"inconclusive: 2.69 µM [inhibitor, full curve]"
6,COc1cc(O)c2c(=O)cc(-c3ccccc3)oc2c1,"inconclusive: 15.1 µM [inhibitor, partial curve]"
7,O=C(O)c1cccc(NS(=O)(=O)c2ccc(NC(=O)c3ccco3)cc2)c1,"inconclusive: 30.1 µM [inhibitor, single point]"
8,O=C(CCc1nnc(C2CCCCC2)o1)NCc1cccc(-n2cccn2)c1,inactive
9,COc1ccc(/C=C2/SC(c3ccc(C)cc3)=NC2=O)cc1OC,"inconclusive: 6.75 µM [inhibitor, full curve]"
10,COc1ccc(-c2csc(/N=C/N(C)C)n2)cc1OC,"inconclusive: 23.9 µM [inhibitor, partial curve, poor fit]"
11,N#C/C(=N\Nc1c(Cl)cccc1Cl)C(=O)NN,"inconclusive: 30.1 µM [inhibitor, partial curve, poor fit]"
12,COc1cccc(NC(=O)CN(C)C(=O)c2ccc3c(c2)S(=O)(=O)N=C2CCCCCN23)c1,"inconclusive: 37.9 µM [inhibitor, partial curve, poor fit]"
13,Cc1ccc(C)c(OCc2nc3ccccc3n2C)c1,"inconclusive: 16.9 µM [inhibitor, single point]"
14,CCc1ccc(-c2nc(CS(=O)CC(=O)O)c(C)o2)cc1 (centres undefined),active: 21.3 µM
15,CSc1nc(-c2ccco2)nn1C(=O)c1ccccc1,"inconclusive: 26.9 µM [inhibitor, single point]"
16,Cc1nc2nc(NCc3ccccc3Cl)[nH]n2c(=O)c1Cc1ccccc1,"inconclusive: 16.9 µM [inhibitor, partial curve, poor fit]"
17,COc1ccc(OCCSc2nc(C)nc3ccccc23)cc1,"inconclusive: 16.9 µM [inhibitor, partial curve]"
18,CCOC(=O)N1CCN(Cc2nc(N)nc(Nc3ccc(Cl)cc3)n2)CC1,"inconclusive: 19 µM [inhibitor, partial curve, poor fit]"
19,Cc1ccc(-c2cc(C(=O)N/N=C/c3cccnc3)n[nH]2)o1,"inconclusive: 21.3 µM [inhibitor, single point]"
20,CC1CCCCN1C(=O)C1COc2ccccc2O1 (centres undefined),inactive
21,Cc1cc(=O)oc2c(C)c(OCC(=O)N3CCN(c4cccc(Cl)c4)CC3)ccc12,inactive
22,CC(C)(C)c1ccc(CCC2OCC(CN3CCOCC3)O2)cc1 (centres undefined),"inconclusive: 30.1 µM [inhibitor, partial curve, poor fit]"
23,Cc1cc(/C=c2\sc3nc4ccccc4n3c2=O)c(C)n1-c1ccc(C(=O)O)cc1,active: 15.1 µM

row,Structure (SMILES),Potency
1,Cn1c2ccccc2c(=O)c2cc(C#Cc3ccccn3)ccc21,active: 3.01 µM
2,N/C(=N\OC(=O)c1cccc([N+](=O)[O-])c1)c1cccnc1,"inconclusive: 37.9 µM [inhibitor, single point]"
3,O=C(COc1cc(Cl)c(Cl)cc1Cl)NC(=O)NC1CCCC1,"inconclusive: 26.9 µM [inhibitor, single point]"
4,CC(C)n1cc(/C=N/NC(=O)COc2cccc3cccnc23)c2ccccc21,active: 2.69 µM
5,Cc1ccc(NC(=O)c2cccc(C(=O)OC(C)C)n2)c(Br)c1,"inconclusive: 26.9 µM [inhibitor, single point]"
6,O=C(Cn1cnc2c(nnn2Cc2ccccc2F)c1=O)NCC1CCCO1 (centres undefined),inactive
7,CCC1(C)Cc2ccccc2-c2[nH][nH]c(=O)c21 (centres undefined),"inconclusive: 37.9 µM [inhibitor, partial curve, poor fit]"
8,COc1ccccc1C1=Nn2c(COc3ccccc3)nnc2SC1,"inconclusive: 37.9 µM [inhibitor, single point]"
9,COc1ccc(N=c2oc3ccccc3cc2C(=O)Nc2ccccn2)cc1OC,active: 23.9 µM
10,CC(C)(C)c1ccc(OCCC(=O)OCC(=O)NC(=O)NC2CCCC2)cc1,"inconclusive: 21.3 µM [inhibitor, single point]"
11,COc1cccc(-c2cc3c(-n4cccc4)ncnc3o2)c1,"inconclusive: 23.9 µM [inhibitor, partial curve]"
12,Cc1cccc(Oc2coc3cc(O)ccc3c2=O)c1,"inconclusive: 21.3 µM [inhibitor, partial curve, poor fit]"
13,NC(=O)c1ccc(NC(=O)COC(=O)CC2Sc3ccccc3NC2=O)cc1 (centres undefined),"inconclusive: 23.9 µM [inhibitor, partial curve, poor fit]"
14,CCOC(=O)C1CCN(C(=O)Cn2nc(C)n3c(cc4c(OC)cccc43)c2=O)CC1,inactive
15,CCOc1ccc(OCCCC(=O)N(C)CC(=O)Nc2ccc(N3CCOCC3)cc2)cc1,"inconclusive: 37.9 µM [inhibitor, partial curve, poor fit]"
16,COc1cccc(C(c2sc3nc(-c4ccco4)nn3c2O)N2CCC(C)CC2)c1 (centres undefined),"inconclusive: 16.9 µM [inhibitor, partial curve, poor fit]"
17,CC(C)(C)OC(=O)N1CCC(c2c(C(=O)N3CCN(c4cccc(Cl)c4)CC3)cnn2-c2cccc(Cl)c2)CC1,inactive
18,COCCN1C(=O)c2ccc(C(=O)Nc3nccs3)cc2C1=O,"inconclusive: 23.9 µM [inhibitor, single point]"
19,O=[N+]([O-])c1ccc(NC2CCCC2)cc1,"inconclusive: 33.8 µM [inhibitor, partial curve, poor fit]"
20,CC(C)(C)c1cc(Cl)c(O)c(NC(=S)NC(=O)c2cccnc2)c1,"inconclusive: 16.9 µM [inhibitor, partial curve, poor fit]"
21,COC(=O)c1c(NC(=O)CCl)sc(C(=O)N2CCOCC2)c1C,inactive
22,COc1ccc(OC)c(NC(=O)CSc2nccn2Cc2ccco2)c1,active: 15.1 µM
23,O=C1Nc2ccc(Br)cc2/C1=N/N=C/C1=C(N2CCOCC2)C(=C\c2ccccc2)/CC1,"inconclusive: 10.7 µM [inhibitor, partial curve]"
